Data set [1] deals with Ephrin type-A receptor 1 (Homo sapiens) (UniProt P21709). The data set can be described thus: Inhibition of recombinant human EPHA1 at 20 nM using biotinyl-beta amyloid-beta amyloid-beta AAEEEIYEEIEAKKK as substrate after 30 mins by HTRF method relative to control. Background: TR-FRET usually uses a lanthanide donor and a delayed reading to cut background.
A short description of data set [2]: Half life in Sprague-Dawley rat at 2 mg/kg, iv by LC-MS/MS analysis. The conditions noted are these: in vivo. The class given is ADME, organism-based. The gist of the method:
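Male Sprague-Dawley rats dosed IV at 2 mg/kg (6 rats) in 10% DMSO, 40% PEG400, 50% water. Jugular-vein blood was collected at set time points and kept on ice. Plasma separated by centrifugation, stored at -80 °C, and analysed by LC-MS/MS.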

The target of data set [3] is Protein-tyrosine kinase 2-beta (Homo sapiens) (UniProt Q14289). The data set can be described thus: Inhibition of recombinant human PYK2 at 20 nM using Ulight-TK peptide as substrate measured after 15 mins by LANCE method relative to control.
A further data set concerns HEL. The data set can be described thus: Induction of apoptosis in HEL cells assessed as early apoptotic cells at 0.5 uM after 24 hrs by Annexin-V/propidium iodide staining-based flow cytometric analysis (reference value: 12.5%). The class given is functional, Homo sapiens.
For data set [4], the target named is Glycogen synthase kinase-3 beta (Homo sapiens) (UniProt P49841). The data set can be described thus: Inhibition of recombinant human GSK3beta at 200 nM using Ulight-CFFKNIVTPRTPPPSQGK-amide as substrate measured after 90 mins by LANCE method relative to control. The essentials: (§1)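 Part of an 85-kinase selectivity panel run by a contract lab, with the test compound at 20 nM and at 200 nM. Each human recombinant kinase's phosphorylation of its peptide substrate was measured following the JAK assay method. Activity is given as percent inhibition.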

Data set [5] addresses Vascular endothelial growth factor receptor 2 (Homo sapiens) (UniProt P35968). Kind of data set: Inhibition of recombinant human VEGFR2 at 200 nM using Ulight-CAGAGAIETDKEYYTVKD as substrate measured after 60 mins by LANCE method relative to control.
Data set [6] deals with Serine/threonine-protein kinase BRSK1 (Homo sapiens) (UniProt Q8TDC3). Kind of data set: Inhibition of recombinant human BRSK1 at 200 nM using CREBtide as substrate measured after 90 mins by LANCE assay relative to control. The gist of the method: (§2)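 Single-concentration screen within an 85-kinase panel run by a contract lab, with each compound tested at 20 nM and 200 nM. Human recombinant enzymes were used. Activity was quantified as phosphorylation of a peptide substrate read by LANCE time-resolved detection, and inhibition was expressed relative to control, using the same format as the JAK assay.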

The target of data set [7] is Tyrosine-protein kinase TXK (Homo sapiens) (UniProt P42681). The data set can be described thus: Inhibition of recombinant human TXK at 200 nM using Ulight-Poly GAT[EAY(1:1:1)] as substrate measured after 30 mins by LANCE method relative to control.
Data set [8] has as its target Protein deacetylase HDAC6 (Homo sapiens) (UniProt Q9UBN7). The data set can be described thus: Inhibition of HDAC6 in human MDA-MB-231 cells assessed as increase in acetyl alpha tubulin level at 5 to 10 uM after 12 hrs by Western blot analysis. The class given is cell-based. The essentials: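 MDA-MB-231 cells treated with compound or DMSO for 12 h, then lysed in SDS buffer and cleared by centrifugation. Lysate resolved by SDS-PAGE and transferred to nitrocellulose. Immunoblotted for p-STAT3 (Tyr705), total STAT3, acetyl-α-tubulin and acetyl-histone H3, with GAPDH as loading control. Detection by enhanced chemiluminescence.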
On the technique in general: In western blotting, separated proteins are transferred to a membrane and probed.

In data set [9] the target is Serine/threonine-protein kinase PAK 2 (Homo sapiens) (UniProt Q13177). Kind of data set: Inhibition of recombinant human PAK2 at 20 nM using Ulight-RRRSLLE as substrate measured after 60 mins by LANCE method relative to control. The gist of the method:
as §1

The target of data set [10] is Testis-specific serine/threonine-protein kinase 1 (Homo sapiens) (UniProt Q9BXA7). The data set can be described thus: Inhibition of recombinant human TSSK1 at 200 nM using Ulight-RRRSLLE as substrate measured after 60 mins by LANCE method relative to control.
Data set [11] deals with Inhibitor of nuclear factor kappa-B kinase subunit alpha (Homo sapiens) (UniProt O15111). The data set can be described thus: Inhibition of recombinant human IKKalpha at 200 nM using Ulight-IkappaB-alpha as substrate measured after 30 mins by LANCE method relative to control. The essentials:
as §1

The target of data set [12] is Mitogen-activated protein kinase kinase kinase kinase 2 (Homo sapiens) (UniProt Q12851). Kind of data set: Inhibition of recombinant human GCK at 200 nM using Ulight-FLGFTYVAP as substrate measured after 60 mins by LANCE method relative to control. The gist of the method: as §2
A short description of data set [13]: Half life in CD1(ICR) mouse at 1 mg/kg, ip by LC-MS/MS analysis. The class given is ADME, organism-based. Particulars: in vivo. The essentials: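 Male ICR (CD-1) mice dosed IP or IV, vehicle 10% DMSO, 40% PEG400, 50% water. Blood taken from the jugular vein at set time points and held on ice. Plasma separated by centrifugation, stored at -80 °C, and analysed by LC-MS/MS.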

For data set [14], the target named is Tyrosine-protein kinase FRK (Homo sapiens) (UniProt P42685). The data set can be described thus: Inhibition of recombinant human FRK at 200 nM using Ulight-Poly GAT[EAY(1:1:1)] as substrate measured after 15 mins by LANCE method relative to control. The gist of the method:
as §2

The target in data set [15] is Serine/threonine-protein kinase N1 (Homo sapiens) (UniProt Q16512). The data set can be described thus: Inhibition of recombinant human PKN1 at 200 nM using CREBtide as substrate measured after 15 mins by LANCE assay relative to control.
For data set [16], the target named is Tyrosine-protein kinase Fyn (Homo sapiens) (UniProt P06241). The data set can be described thus: Inhibition of recombinant human FYN at 20 nM using biotinyl-beta amyloid-beta amyloid-beta AYQAEENTYDEYEN as substrate after 60 mins by HTRF method relative to control.
For another data set, the system named is K562. Kind of data set: Induction of apoptosis in human K562 cells assessed as early apoptotic cells at 0.5 uM after 24 hrs by Annexin-V/propidium iodide staining-based flow cytometric analysis (reference value: 7.55%). The class given is functional.
Data set [17] can be described thus: Half life in rat liver microsomes at 1 uM in presence of UDPGA cofactor for phase 2 metabolism and measured upto 60 mins by LC-MS/MS analysis. The class given is ADME, Microsome. The gist of the method: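 Liver microsomes (rat or human) incubated with compound at 37 °C, with NADPH for phase I or UDPGA for phase II. Reactions stopped in acetonitrile at set time points, vortexed 5 min, stored at -80 °C. Parent remaining in supernatant measured by LC-MS/MS. t1/2 = -0.693/k, with k the slope of ln fraction remaining versus time.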

The target in data set [18] is Dual specificity protein kinase CLK1 (Homo sapiens) (UniProt P49759). Kind of data set: Inhibition of recombinant human CLK1 at 20 nM using Ulight-CFFKNIVTPRTPPPSQGK-amide as substrate measured after 30 mins by LANCE assay relative to control. The essentials:
as §2

Data set [19] concerns the target Fibroblast growth factor receptor 4 (Homo sapiens) (UniProt P22455). The data set can be described thus: Inhibition of recombinant human FGFR4 at 200 nM using Ulight-CAGAGAIETDKEYYTVKD as substrate measured after 60 mins by LANCE method relative to control. The essentials:
as §2

Data set [20] has as its target Fibroblast growth factor receptor 1 (Homo sapiens) (UniProt P11362). Kind of data set: Inhibition of recombinant human FGFR1 at 20 nM using Ulight-CAGAGAIETDKEYYTVKD as substrate measured after 60 mins by LANCE method relative to control. The gist of the method: as §2

For orientation: inhibition means the change of the read-out against control, counted positive when it falls. Usually half-life stands for the time in which the quantity being followed falls by half.

Active and inactive are the calls of the source. The rule behind the calls is not given here.

Chain of UniProt Q16512 (Q16512 whole entry, looked up): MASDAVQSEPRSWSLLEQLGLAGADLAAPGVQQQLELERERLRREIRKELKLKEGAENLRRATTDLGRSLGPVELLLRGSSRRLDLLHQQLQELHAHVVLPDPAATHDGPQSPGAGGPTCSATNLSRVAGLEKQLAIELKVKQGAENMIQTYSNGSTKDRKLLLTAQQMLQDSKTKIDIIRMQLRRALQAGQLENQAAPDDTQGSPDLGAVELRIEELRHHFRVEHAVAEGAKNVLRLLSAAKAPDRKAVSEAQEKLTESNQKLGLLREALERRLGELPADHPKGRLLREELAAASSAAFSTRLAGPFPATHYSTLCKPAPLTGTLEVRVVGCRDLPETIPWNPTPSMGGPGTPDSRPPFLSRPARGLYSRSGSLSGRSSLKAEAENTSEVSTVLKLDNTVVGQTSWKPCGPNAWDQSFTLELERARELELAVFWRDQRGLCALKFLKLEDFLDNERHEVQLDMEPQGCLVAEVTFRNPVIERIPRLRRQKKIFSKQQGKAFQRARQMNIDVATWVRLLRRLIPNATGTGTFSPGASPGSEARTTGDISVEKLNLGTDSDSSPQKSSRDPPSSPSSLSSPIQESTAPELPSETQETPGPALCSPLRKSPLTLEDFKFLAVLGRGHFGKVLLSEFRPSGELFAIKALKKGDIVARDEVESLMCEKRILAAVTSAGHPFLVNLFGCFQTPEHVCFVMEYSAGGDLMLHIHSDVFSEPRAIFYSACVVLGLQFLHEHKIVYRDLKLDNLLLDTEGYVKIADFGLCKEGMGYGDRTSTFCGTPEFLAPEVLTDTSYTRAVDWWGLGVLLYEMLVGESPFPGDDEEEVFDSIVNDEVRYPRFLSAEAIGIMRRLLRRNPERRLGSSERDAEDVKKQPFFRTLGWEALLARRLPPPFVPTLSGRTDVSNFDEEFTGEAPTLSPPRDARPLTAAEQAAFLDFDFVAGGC
Chain of UniProt Q8TDC3 (Q8TDC3 whole entry): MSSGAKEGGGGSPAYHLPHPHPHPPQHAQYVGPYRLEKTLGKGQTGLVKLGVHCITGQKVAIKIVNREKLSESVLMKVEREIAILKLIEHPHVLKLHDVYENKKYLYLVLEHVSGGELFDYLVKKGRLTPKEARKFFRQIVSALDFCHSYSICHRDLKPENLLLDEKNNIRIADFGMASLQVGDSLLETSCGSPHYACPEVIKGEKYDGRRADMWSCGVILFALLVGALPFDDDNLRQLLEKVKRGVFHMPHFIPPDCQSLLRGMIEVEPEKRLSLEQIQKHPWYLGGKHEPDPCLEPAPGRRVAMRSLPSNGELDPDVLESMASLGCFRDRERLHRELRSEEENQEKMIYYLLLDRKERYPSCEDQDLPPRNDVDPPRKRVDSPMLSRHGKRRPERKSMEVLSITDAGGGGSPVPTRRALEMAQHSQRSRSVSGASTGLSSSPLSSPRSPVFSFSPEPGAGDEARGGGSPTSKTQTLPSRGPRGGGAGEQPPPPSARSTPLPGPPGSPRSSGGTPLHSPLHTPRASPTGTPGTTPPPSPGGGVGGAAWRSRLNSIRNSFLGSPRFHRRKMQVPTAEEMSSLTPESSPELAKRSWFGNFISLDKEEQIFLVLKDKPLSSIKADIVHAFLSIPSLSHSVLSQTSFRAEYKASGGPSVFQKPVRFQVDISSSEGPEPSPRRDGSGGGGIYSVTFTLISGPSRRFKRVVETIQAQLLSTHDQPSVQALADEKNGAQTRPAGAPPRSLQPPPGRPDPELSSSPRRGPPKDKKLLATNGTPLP
Chain of UniProt Q13177 (Q13177 whole entry): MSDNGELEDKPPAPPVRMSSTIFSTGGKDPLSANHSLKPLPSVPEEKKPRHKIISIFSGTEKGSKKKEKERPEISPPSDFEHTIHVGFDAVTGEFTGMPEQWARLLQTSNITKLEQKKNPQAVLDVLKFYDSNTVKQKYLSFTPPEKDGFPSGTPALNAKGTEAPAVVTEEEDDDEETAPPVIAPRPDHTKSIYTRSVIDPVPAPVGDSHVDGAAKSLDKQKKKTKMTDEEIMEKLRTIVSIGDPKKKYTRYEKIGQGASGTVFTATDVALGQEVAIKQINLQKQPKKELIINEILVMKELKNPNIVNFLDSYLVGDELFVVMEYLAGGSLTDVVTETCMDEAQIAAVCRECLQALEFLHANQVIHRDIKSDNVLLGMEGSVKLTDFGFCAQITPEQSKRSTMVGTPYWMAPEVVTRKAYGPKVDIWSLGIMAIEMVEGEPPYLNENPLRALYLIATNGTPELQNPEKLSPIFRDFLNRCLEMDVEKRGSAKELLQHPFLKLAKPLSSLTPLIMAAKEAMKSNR
Chain of UniProt P06241 (P06241 whole entry, looked up): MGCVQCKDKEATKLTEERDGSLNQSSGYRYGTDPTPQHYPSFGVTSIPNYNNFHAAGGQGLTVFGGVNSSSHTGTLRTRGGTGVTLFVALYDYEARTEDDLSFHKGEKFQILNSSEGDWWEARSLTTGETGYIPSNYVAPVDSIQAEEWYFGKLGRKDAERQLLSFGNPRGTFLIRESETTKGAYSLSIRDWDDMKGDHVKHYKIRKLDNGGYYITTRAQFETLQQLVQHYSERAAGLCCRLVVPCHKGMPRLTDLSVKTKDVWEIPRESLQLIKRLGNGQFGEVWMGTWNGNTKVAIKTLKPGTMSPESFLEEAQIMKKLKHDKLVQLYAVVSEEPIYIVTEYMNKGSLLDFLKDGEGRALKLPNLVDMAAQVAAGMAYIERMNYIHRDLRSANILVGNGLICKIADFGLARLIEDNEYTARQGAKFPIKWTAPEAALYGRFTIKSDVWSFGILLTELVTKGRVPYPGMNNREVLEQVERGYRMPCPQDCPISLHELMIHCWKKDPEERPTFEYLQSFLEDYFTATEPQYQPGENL
Chain of UniProt P49759 (P49759 whole entry, looked up): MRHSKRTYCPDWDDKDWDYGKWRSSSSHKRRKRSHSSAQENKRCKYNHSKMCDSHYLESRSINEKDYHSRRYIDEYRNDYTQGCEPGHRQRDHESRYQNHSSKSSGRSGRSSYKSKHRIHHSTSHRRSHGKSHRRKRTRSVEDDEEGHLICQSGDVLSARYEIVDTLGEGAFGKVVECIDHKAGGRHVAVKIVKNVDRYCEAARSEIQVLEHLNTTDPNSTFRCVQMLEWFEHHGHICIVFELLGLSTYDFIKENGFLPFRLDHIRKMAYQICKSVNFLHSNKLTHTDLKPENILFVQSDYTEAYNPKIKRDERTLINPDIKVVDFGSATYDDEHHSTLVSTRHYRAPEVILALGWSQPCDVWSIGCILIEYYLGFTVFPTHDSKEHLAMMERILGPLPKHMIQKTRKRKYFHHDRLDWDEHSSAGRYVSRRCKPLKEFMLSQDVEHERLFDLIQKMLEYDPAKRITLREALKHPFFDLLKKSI
Chain of UniProt P11362 (P11362 whole entry, looked up): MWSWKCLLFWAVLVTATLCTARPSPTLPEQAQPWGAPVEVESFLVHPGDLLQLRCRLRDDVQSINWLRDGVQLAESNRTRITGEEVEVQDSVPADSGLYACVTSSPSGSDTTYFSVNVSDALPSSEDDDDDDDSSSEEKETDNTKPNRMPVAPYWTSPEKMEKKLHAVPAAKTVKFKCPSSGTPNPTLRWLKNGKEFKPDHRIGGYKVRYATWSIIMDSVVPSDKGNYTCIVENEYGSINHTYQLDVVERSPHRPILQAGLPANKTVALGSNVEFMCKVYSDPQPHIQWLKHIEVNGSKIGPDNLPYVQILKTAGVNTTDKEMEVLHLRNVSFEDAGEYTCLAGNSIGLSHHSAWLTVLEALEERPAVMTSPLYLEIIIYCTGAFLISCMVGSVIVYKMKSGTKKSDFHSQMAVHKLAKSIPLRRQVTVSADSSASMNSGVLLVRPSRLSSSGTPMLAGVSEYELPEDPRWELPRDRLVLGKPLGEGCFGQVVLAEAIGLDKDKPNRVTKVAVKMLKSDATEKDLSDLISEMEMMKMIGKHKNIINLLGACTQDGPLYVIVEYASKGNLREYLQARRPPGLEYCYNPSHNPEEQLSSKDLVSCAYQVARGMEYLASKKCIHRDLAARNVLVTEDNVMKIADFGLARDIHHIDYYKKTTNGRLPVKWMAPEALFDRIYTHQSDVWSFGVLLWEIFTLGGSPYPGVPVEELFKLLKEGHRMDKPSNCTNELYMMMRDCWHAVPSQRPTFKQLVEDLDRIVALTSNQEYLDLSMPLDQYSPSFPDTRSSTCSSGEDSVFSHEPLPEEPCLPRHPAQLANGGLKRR
Chain of UniProt O15111 (O15111 whole entry): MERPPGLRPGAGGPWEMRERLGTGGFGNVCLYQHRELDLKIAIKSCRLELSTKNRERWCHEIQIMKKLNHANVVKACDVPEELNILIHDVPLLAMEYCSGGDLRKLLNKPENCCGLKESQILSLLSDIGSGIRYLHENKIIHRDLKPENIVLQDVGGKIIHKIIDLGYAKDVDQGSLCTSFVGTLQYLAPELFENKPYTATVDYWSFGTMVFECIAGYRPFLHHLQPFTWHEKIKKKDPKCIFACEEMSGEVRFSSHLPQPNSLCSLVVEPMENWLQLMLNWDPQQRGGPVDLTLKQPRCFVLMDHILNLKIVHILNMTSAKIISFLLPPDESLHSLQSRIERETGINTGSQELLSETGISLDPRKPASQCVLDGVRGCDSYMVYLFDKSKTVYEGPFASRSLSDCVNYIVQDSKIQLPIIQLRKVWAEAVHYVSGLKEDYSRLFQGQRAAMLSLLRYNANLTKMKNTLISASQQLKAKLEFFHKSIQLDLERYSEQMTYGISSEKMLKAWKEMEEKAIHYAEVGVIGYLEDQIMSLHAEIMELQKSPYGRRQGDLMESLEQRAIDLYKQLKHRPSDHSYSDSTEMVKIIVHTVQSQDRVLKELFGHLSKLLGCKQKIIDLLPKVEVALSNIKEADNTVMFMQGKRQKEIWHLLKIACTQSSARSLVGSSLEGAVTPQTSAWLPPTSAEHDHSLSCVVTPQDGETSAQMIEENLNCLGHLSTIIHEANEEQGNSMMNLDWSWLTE

For `O=C(CCCCCn1cc(Nc2ncc(Cl)c(Nc3ccc(Cl)cc3)n2)cn1)NO`, the inhibition in data set [1] amounted to 0%; in data set [3], 1%; in data set [4], 48%; in data set [5], 96%; in [6], 19%; in [7], 26%. Besides, the inhibition in data set [9] was -3%; in data set [10], 19%; in data set [11] it was 7%; in [12], 26%; in data set [14] it was 11%; in data set [15], 33%. Also, the inhibition was 18% in data set [16], 14% in data set [18], 34% in [19] and -3% in data set [20]. The half-life in [2] was 19.2 min; in [13], 15.6 min. Also, the Activity with HEL stood at 24.2%; in the data set with K562, 36.9%. In data set [8], the inhibition result was “Active”. The half-life at 1 µM in data set [17] worked out at 41.6 min.

The values above are taken from ChEMBL document CHEMBL4346670, “Discovery of Novel Janus Kinase (JAK) and Histone Deacetylase (HDAC) Dual Inhibitors for the Treatment of Hematological Malignancies” (J Med Chem, 2019).
